From the supplement of paper PMC3334620
Whole data set: some 33,000 sequences, median “E-score (-0.5 to 0.5)” near -0.053, cut for the highest 2% near 0.37. The list shows a part of the results.

molecular target: Hap1 (UniProt P0CE41); test: PBM E-score (8-mer binding enrichment) (E-score (-0.5 to 0.5)); higher = stronger / more preferred TF binding; most listed sequences are background and not binding sites; conditions: protein concentration: 200 nM; construct: GST-DNA-binding domain
Method: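 Universal 'all 10-mer' protein binding microarrays (Agilent AMADID 015681) probed with GST-tagged S. cerevisiae TFs (full-length or DBD) made by in vitro transcription/translation (PURExpress), about 100-200 nM. Bound TF was detected with fluorescent anti-GST. Each ungapped 8-mer (which stands for itself and its reverse complement) is scored by the PBM enrichment score (E-score), a modified Wilcoxon-Mann-Whitney statistic from -0.5 to +0.5, computed with the Universal PBM Analysis Suite. Scale: above 0.35 generally sequence-specific binding.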

Chain of UniProt P0CE41 (P0CE41 whole entry, the tested form may be a part): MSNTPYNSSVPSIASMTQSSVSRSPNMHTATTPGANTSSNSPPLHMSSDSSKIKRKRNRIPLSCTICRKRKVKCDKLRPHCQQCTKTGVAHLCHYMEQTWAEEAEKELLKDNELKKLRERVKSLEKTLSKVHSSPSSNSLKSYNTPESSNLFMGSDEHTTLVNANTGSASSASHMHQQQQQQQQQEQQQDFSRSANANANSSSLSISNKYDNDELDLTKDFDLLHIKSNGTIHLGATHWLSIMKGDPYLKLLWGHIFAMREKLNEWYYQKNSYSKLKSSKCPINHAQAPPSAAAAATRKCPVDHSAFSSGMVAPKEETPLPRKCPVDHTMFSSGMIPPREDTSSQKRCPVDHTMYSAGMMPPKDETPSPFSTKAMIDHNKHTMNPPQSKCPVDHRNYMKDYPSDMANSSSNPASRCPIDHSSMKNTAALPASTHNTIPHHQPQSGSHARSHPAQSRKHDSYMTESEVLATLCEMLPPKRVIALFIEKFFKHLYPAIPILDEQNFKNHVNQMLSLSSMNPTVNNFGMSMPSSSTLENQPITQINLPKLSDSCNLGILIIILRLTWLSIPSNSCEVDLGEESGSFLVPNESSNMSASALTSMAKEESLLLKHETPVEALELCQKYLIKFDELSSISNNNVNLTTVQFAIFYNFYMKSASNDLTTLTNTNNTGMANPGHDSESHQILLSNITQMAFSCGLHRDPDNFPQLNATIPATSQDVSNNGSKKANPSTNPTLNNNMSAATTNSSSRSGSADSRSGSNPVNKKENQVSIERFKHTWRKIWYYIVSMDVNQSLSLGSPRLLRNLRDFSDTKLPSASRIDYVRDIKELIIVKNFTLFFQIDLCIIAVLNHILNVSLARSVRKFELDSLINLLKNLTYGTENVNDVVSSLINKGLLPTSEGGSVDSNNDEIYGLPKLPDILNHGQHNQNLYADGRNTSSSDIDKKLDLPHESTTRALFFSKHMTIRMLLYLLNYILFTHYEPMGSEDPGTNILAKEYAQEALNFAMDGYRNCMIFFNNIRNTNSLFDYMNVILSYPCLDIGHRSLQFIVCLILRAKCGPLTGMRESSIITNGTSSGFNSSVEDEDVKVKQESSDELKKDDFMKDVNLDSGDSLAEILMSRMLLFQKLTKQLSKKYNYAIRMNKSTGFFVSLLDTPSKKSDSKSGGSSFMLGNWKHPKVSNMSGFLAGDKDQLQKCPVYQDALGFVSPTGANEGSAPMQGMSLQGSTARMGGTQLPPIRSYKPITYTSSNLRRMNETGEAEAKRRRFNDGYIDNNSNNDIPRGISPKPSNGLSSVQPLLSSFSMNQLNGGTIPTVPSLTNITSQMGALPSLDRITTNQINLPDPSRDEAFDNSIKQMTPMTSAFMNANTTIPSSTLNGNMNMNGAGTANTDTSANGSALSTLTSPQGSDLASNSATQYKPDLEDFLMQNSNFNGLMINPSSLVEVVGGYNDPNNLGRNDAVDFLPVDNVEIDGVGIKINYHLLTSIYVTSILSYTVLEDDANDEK

Sequence | PBM E-score
CAGCGGAG | 0.245
CAACAGCA | -0.0939
CAAACGAG | -0.0889
ATATTGAA | -0.0564
AATCATAG | -0.0307
CTAGTGAA | -0.0412
CCAGGGAC | -0.185
ATGTCTTC | -0.139
ACCCAAAC | 0.0644
ATCCCCAC | 0.00986
ATTCTTTG | -0.158
ATTAAGGA | -0.0105
AGCTGCGA | -0.0156
GCCATTCA | 0.0532
GCTGATGA | -0.269
ACGAAGCG | -0.317
CAGGTCCA | -0.0172
CTTGCGCC | -0.0164
CACCACTG | -0.311
ATCGACGA | 0.0392
CCGACTAC | 0.249
AAGAGGCC | 0.122
AGCGCCCT | 0.0634
GTTCGTGA | -0.126
CAAAGTGG | -0.149

Sequence | PBM E-score
AGTACGTA | -0.11
GGTAGACC | 0.122
GTGACCGA | 0.298
GACCGACC | 0.266
CCAAAGTC | -0.103
ATGTGTCC | 0.124
GGCTGGAA | -0.0106
CGTTTTGC | -0.185
AACTAAGT | -0.0909
CCCTGCAG | -0.0886
CCTTCACG | -0.154
GGCCAAGA | -0.144
CGTGAGAG | -0.158
GCATTACA | -0.0591
CAAAAACC | 0.19
GCTGGGGA | -0.176
CTCGCACA | -0.0196
CTGACAGC | -0.168
GGGTTAGA | 0.0639
CATCAACG | -0.0133
ACATCACT | -0.236
GATAGGAC | -0.0118
TGGTACCA | 0.0153
ACGACATG | -0.195
CAGCAATC | -0.0047

Sequence | PBM E-score
AAAACCCG | 0.4
CTATTCAC | 0.0922
AAGAGTGT | -0.182
CAAGAAGA | -0.185
AACATGAT | -0.0998
CACGAACC | -0.0667
AAGCGATC | 0.0805
TAATCCTA | 0.035
AAACACAC | -0.0893
ACCTACAT | -0.113
CGCAAGAG | 0.0588
GGGGCTAC | 0.0486
GGATAGAC | -0.113
ACGGTACT | 0.183
AGCACACG | -0.198
AAAATAAC | -0.143
CACGTGAA | -0.18
TATGGAAA | 0.0763
CGGACATC | 0.365
CGCCGAAA | 0.359
CGCGGACC | 0.312
ATATGGCG | 0.0887
AGTGGATC | 0.133
GGTCAAGA | -0.135
CAGGGTAA | -0.177

Sequence | PBM E-score
CAGGATCA | -0.0263
CCTACTAG | -0.248
AAGTACGT | -0.253
CGGGATCA | 0.22
ATCGCTTG | -0.218
AGCCCAAT | -0.252
AGGCAATC | -0.0887
CCTTTGTA | -0.187
CCACTGGG | -0.145
ACTTTTCA | -0.288
GTCGGCAC | 0.065
ACGAATGC | -0.225
ACGATCAT | -0.223
GGTACGAC | 0.025
CATCCCAA | -0.292
CAGACAGA | -0.226
GCCGAGAC | 0.283
CACTCCGC | 0.156
GCACTCCA | -0.208
ACTTTCAG | -0.0767
CATATCTC | 0.0335
CTCGATGC | -0.171
GGCTACTA | -0.00226
ATTTATTC | 0.142
GGTACATA | 0.18

Sequence | PBM E-score
GATCGATA | -0.051
CCACAGAA | -0.15
GAAAACGC | -0.0874
ATTGGGTA | -0.211
AATCGCAC | -0.23
AACACGAT | 0.00865
ACTTGCCA | -0.229
CTCATAGC | -0.292
AGGGGGAT | -0.02
GAATTTTA | 0.111
ATGTGAGG | -0.116
ACTAGAAC | 0.0117
AGGGTTCC | 0.1
CCGGCGAC | 0.276
ACAATAAC | -0.0359
GCAACTCA | -0.0789
CTACCCAG | -0.27
TAGCCTGA | -0.271
CCGCATCC | 0.0271
ACAAAAGG | 0.059
CTGAAGCA | -0.353
ATTATAGA | -0.0881
CACTTAGG | -0.148
CGGTTACG | 0.244
CTCTTCGC | -0.0711

Sequence | PBM E-score
CAGGGGAG | -0.137
GGCCCTTA | 0.138
ACGTAATA | -0.113
ATTCTGCC | 0.158
CAGAGACC | -0.0501
AATAGAAG | -0.108
TAGCAGGA | -0.0716
AAGTTCTG | -0.13
GGGCGAAA | 0.216
AACCTCGG | 0.33
GGTTAGAC | 0.105
CTTAGAAA | -0.207
CTGCTCGC | 0.106
CTGGATAC | -0.176
CTCGCCTC | -0.0174
CGCGCGGA | 0.266
GGAATGCA | 0.0613
AGAGACTG | -0.227
AGTTAGAT | -0.278
ATCACCGC | 0.234
ACCGAGCA | 0.359
ACTCGCCA | -0.217
GTTTATCA | 0.0548
ACGCGTTA | -0.0916
ACGAGTTG | -0.199

Sequence | PBM E-score
CATCAGAA | -0.326
GAAACCCC | 0.176
AGGGCTGC | -0.121
GGGTTTGA | 0.0488
GTGTGTCA | -0.159
ATTTCGGA | 0.415
GGACACGA | 0.128
CGCTTCCG | 0.278
AACTAGGC | -0.147
AGCAAGAA | -0.0762
AGTTCCCG | 0.298
CAGTCCTA | -0.309
CAGCGATG | -0.0731
GAGCCAAC | -0.0736
GAGTTGAC | -0.0936
ACCGGACT | 0.408
AGCTTAAG | -0.174
ATGGCCTG | -0.106
AAAGAGCC | -0.12
CTTTGCTC | -0.0184
TAGCTGAA | -0.158
GTCTGCAC | -0.0233
